Experiment [1] in a line: qHTS assay to identify small molecule antagonists of the TGF-beta/Smad signaling pathway - cell viability counter screen (AID 1346824). Also: nearly all actives have a fitted effect of over 50% in size. Put shortly: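 SBE-bla HEK 293T cells, incubated overnight, then compound plus 0.25 ng/mL TGF-beta1 (stock added) for 5 hr at 37 C. Viability was read in the same wells by CellTiter-Glo luminescence after 30 min at room temperature.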
Experiment [2] in a line: qHTS assay to identify small molecule agonists of the constitutive androstane receptor (CAR) signaling pathway - cell viability counter screen (AID 1224836). Also: nearly all actives have a fitted effect of over 45% in size. Put shortly:
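Viability read-out: CellTiter-Fluor fluorescence after 23 h compound exposure at 37 C/5% CO2 in double-stable HepG2-CYP2B6-hCAR cells, with PK11195 present at 0.75 uM final; compounds tested in 15-point titration.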
Background: Quantitative high-throughput screening tests each substance at several concentrations.

Experiment [3] is described as follows: qHTS assay to identify small molecule antagonists of the constitutive androstane receptor (CAR) signaling pathway - cell viability counter screen (AID 1224837). Also: nearly all actives have a fitted effect of over 45% in size. The procedure, abridged:
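Using CellTiter-Fluor, viability is scored in HepG2 cells stably carrying hCAR and a 2.2kb CYP2B6 reporter after 23 hr compound exposure across 15 concentrations, with CITCO present at 50 nM.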

The nature of experiment [4]: qHTS assay to identify small molecule antagonists of the estrogen receptor alpha (ER-alpha) signaling pathway using the BG1 cell line in the presence of 0.1 nM 17-beta-estradiol - cell viability counter screen (AID 1259241). Also: nearly all actives have a fitted effect of over 40% in size. The procedure, abridged: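 Live-cell protease activity (CellTiter-Fluor fluorescence, 30 min) was read in the same wells after VM7Luc4E2 cells had been exposed to compounds with 0.1 nM 17beta-estradiol for 22 hr at 37C.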

A short description of experiment [5]: qHTS assay to identify small molecule antagonists of the progesterone receptor (PR) signaling pathway - cell viability counter screen (AID 1346798). Also: nearly all actives have a fitted effect of over 50% in size. The procedure, abridged: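 Luminescence readout (CellTiter-Glo, 30 min, RT) of viability in PR-UAS-bla HEK293T cells exposed to compound and R5020 agonist for 16 hr at 37C, 5% CO2; run in the same wells as the beta-lactamase reporter read.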

The nature of experiment [6]: qHTS assay to identify small molecule agonists or antagonists of the thyroid stimulating hormone receptor (TSHR) signaling pathway - wild type cell line counter screen (AID 1259384; calls by dose curve). Put shortly: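 Wild-type Hek293 cells, 800/well, 18 h at 37C, then compound with Ro20-1724 for 30 min RT. cAMP by HTRF (cAMP-d2/anti-cAMP cryptate), 1 h RT, fluorescence read. 15 concentrations, triplicates.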

Experiment [7] is described as follows: qHTS assay to identify small molecule antagonists of the thyroid receptor (TR) signaling pathway (AID 743065). Also: nearly all actives have a fitted effect of over 55% in size. Put shortly: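 GH3.TRE-Luc rat pituitary cells (two TREs driving luciferase) were dosed with compound, then stimulated with 1 nM T3 (final) for 23.5 h at 37 C. ONE-Glo luminescence was the read-out, with CellTiter-Fluor fluorescence as the cytotoxicity counter-screen.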

Structures are written as SMILES. Inconclusive results are not listed. Unless noted, calls follow the shape of the dose curve; as a rule, active = well fitted curve in the direction sought with a large enough effect in the repeat runs; inconclusive = weak or mixed curves; inactive = no such curve, though single readings can be large; an effect the other way counts as inactive or inconclusive. The source holds several records for some structures; these can differ, active in one and inactive in another. For part of its entries the source gives two or more results. They are shown here; other results are not. There may be further records. Results that share an entry are repeats in other runs, samples, wells, individuals or studies. Records carry a tag for their origin. The letters are not those of the source and start again with each entry.
Potency is read from the fitted curve at half-maximal effect.

As to `CO[Si](CCCNCCN)(OC)OC`, the Potency entry in experiment [1] was “active: 44.3 µM [sample A] and inactive [sample B]”.
As to `CC1=CC(=O)CC(C)(C)C1`, the Potency entry was “active: 15.8 µM [sample A] and inactive [sample B]” in experiment [2]; “active: 12.5 µM [sample A] and inactive [sample B]” in experiment [3]; “active: 22.3 µM [sample A] and inactive [sample B]” in experiment [4]; “active: 14.1 µM [sample A] and inactive [sample B]” in experiment [5].
Turning to `O=[N+]([O-])c1ccccc1C(F)(F)F`, the Potency entry in experiment [6] is “active: 59.8 µM [sample A] and inactive [sample B]”.
Regarding `COc1cc(NC(=O)CC(C)=O)c(OC)cc1Cl`, the Potency entry in experiment [7] is “inactive [sample A] and active: 38.6 µM [sample B]”.

The record behind these values is PubChem BioAssay (Tox21).
